# Results reported in article PMC7819943, “Rice protein-binding microarrays: a tool to detect cis-acting elements near promoter regions in rice”.
# This is one part of the list.
# Target: T1, OsWOX13 (Oryza sativa, UniProt Q5QMM3 1-267)
# T1 sequence: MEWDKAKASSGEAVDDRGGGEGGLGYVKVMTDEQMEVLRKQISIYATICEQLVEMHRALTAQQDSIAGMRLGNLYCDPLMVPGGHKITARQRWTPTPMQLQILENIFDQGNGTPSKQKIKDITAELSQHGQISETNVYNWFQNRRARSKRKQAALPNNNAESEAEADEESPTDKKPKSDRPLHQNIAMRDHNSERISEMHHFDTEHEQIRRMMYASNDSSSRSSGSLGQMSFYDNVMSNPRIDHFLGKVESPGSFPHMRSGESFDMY
# Assay: protein-binding microarray (RPBM); PBS, 2% BSA, 51.3 ng/ul salmon testes DNA, 50 uM zinc acetate, 200 nM TF, 25 C, 1 h; high values mean tight binding
# Details: protein: recombinant; tags: N-terminal polyhistidine and DsRed monomer fusion (pET32a); label: CyDye5-dUTP incorporated in the synthesized complementary strand; 3' TTTTT single-stranded linker to array surface; dsDNA, one strand shown
# Summary of the method: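 Transcription factors were made in E. coli BL21-CodonPlus as N-terminal fusions to a polyhistidine tag and DsRed, then purified on Ni–NTA. After primer extension with Cy5-dUTP and blocking with 2% BSA, a custom Agilent array was exposed for 1 h at 25 °C to 200 nM protein in PBS, 2% BSA, salmon testes DNA and 50 µM zinc acetate. Washed arrays were scanned on an Axon 4000B, and the binding signal is per-feature fluorescence intensity in arbitrary units.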
row,Sequence,binding signal
1,CTTGTGAAGACTGCTTCTGATTGGCTATGCATAGCCACGACGGAGTCACCTAGTGCAG,11500 fluorescence intensity (a.u.)
2,ATCAAATTACAAGATTGCATATAAGTGAGAAGGATTGGGGCGGAGTCACCTAGTGCAG,10900 fluorescence intensity (a.u.)
3,TTATATATGATAATTATATATATGATAATTTGTTCAATGACGGAGTCACCTAGTGCAG,9780 fluorescence intensity (a.u.)
4,TCTGATGAAATGTACTACAGCTTGCTTAAAATTCATATGCCGGAGTCACCTAGTGCAG,3790 fluorescence intensity (a.u.)
5,TTGACTAATGATAATTTAGAGCCAATAGTTAGCTATACTACGGAGTCACCTAGTGCAG,19700 fluorescence intensity (a.u.)
6,ACCCGATTACATTTGATGAGCATAGTAGGCCATAAATTTGCGGAGTCACCTAGTGCAG,7550 fluorescence intensity (a.u.)
7,CCTTTTGATTTTACTACCTACTGATTGTAGTCATAGGTTCCGGAGTCACCTAGTGCAG,15300 fluorescence intensity (a.u.)
8,GCAGTAAGATAGACTGACATATATATTGGCAGTCAAAGTTCGGAGTCACCTAGTGCAG,7100 fluorescence intensity (a.u.)
9,CATAATTTGTTTCTGGGTTCTGCTGTTCTGCTCCTCCTCTCGGAGTCACCTAGTGCAG,28500 fluorescence intensity (a.u.)
10,ATTGGAATCCTGATTGCATAGGGTTTAACCTTATAGAAGCCGGAGTCACCTAGTGCAG,5150 fluorescence intensity (a.u.)
11,AACAAGCCCTAACTTAAATTGACAAATTTAACTCCAAATTCGGAGTCACCTAGTGCAG,11900 fluorescence intensity (a.u.)
12,CTTCAAATTGTGAGTTAATCTGGGCCAATATGGCAAATATCGGAGTCACCTAGTGCAG,3780 fluorescence intensity (a.u.)
13,ACTTGACTGAATAAACAAACGAGTGATCCAGAGAGGGGAGCGGAGTCACCTAGTGCAG,34500 fluorescence intensity (a.u.)
14,TCTGATTTAACTATAGGGATACAAGTAGGCCTATGTGGGTCGGAGTCACCTAGTGCAG,32400 fluorescence intensity (a.u.)
15,GTTCTAATTTCTAAATGTAATAGTAATGTATAGGCGTGGCCGGAGTCACCTAGTGCAG,14200 fluorescence intensity (a.u.)
16,GCTGGATACGTGATTTGCCTGGAATGCACTACGGTTGATTCGGAGTCACCTAGTGCAG,4700 fluorescence intensity (a.u.)
17,TGGAAATAAATCAGGATTGTTAGATTTTGAACGTGTGTATCGGAGTCACCTAGTGCAG,5390 fluorescence intensity (a.u.)
18,TAGTGCTAATTAACTAGAGGATGAGATAAGCCGTTGGACACGGAGTCACCTAGTGCAG,16900 fluorescence intensity (a.u.)
19,GCCTGATTATCCATTGTTCATCCTGCCATATTGATTTCAGCGGAGTCACCTAGTGCAG,30300 fluorescence intensity (a.u.)
20,GTCTTTAAATTTGTTATATGTAGCACAACCGTAAAAGGGCCGGAGTCACCTAGTGCAG,4130 fluorescence intensity (a.u.)
21,ATAATAGATGCAAAATTACATATCTAATACGGATATCTGACGGAGTCACCTAGTGCAG,11500 fluorescence intensity (a.u.)
22,CTGATTCCATGTTACCGTCAATCGTGAGGCCATCAGTTCCCGGAGTCACCTAGTGCAG,8150 fluorescence intensity (a.u.)
23,TCTCATTAATTAGATACTAACATATGCTTATCTGAATCTCCGGAGTCACCTAGTGCAG,27800 fluorescence intensity (a.u.)
24,GATGACCTTAATTTGATTCCCAGAACATAAAATAAAAGGGCGGAGTCACCTAGTGCAG,12700 fluorescence intensity (a.u.)
25,TCGATTGACAGTACACATCGTAGCCTGCATCAACGCAGAGCGGAGTCACCTAGTGCAG,24400 fluorescence intensity (a.u.)
26,GAAGGGGAGCGGCGAAGCCCTGCTGGTTCGCTCAATTCATCGGAGTCACCTAGTGCAG,3380 fluorescence intensity (a.u.)
27,CAATCAATCAAAGCACACAGATCTGAGCTAGCTAGCGCCCCGGAGTCACCTAGTGCAG,21600 fluorescence intensity (a.u.)

row,Sequence,binding signal
1,AATAATTTATGAATAAAACTTTTATATACGTGTCCTTAGCCGGAGTCACCTAGTGCAG,29400 fluorescence intensity (a.u.)
2,AGTCGTTAGCGATTTAATTATATACAATAATCTTCACGTGCGGAGTCACCTAGTGCAG,4060 fluorescence intensity (a.u.)
3,ACTCGTGATTTACTAAAACATTGCCCTATTGAAACCCTAACGGAGTCACCTAGTGCAG,15100 fluorescence intensity (a.u.)
4,AATAAAAGATTATCATATCTAAATAGAAGATATACCATCTCGGAGTCACCTAGTGCAG,4160 fluorescence intensity (a.u.)
5,TTGTTAAATCATGGCGCAATTAGACTTAAAAGATTCGTCTCGGAGTCACCTAGTGCAG,8820 fluorescence intensity (a.u.)
6,AAGCTAATCATCAGAGTTATGCTGAGGATTCTAGCTTACACGGAGTCACCTAGTGCAG,7330 fluorescence intensity (a.u.)
7,TCAGACAGACCAAATTGGGCTAAATATGAGACATTTAGGGCGGAGTCACCTAGTGCAG,7290 fluorescence intensity (a.u.)
8,CTCACCTGTGACAGGTGTTAAATTTGCAACCCGTCAAAGACGGAGTCACCTAGTGCAG,8680 fluorescence intensity (a.u.)
9,GTGTACTGATAGAGATTAGCAGCAGCTTAGTACTTCATGCCGGAGTCACCTAGTGCAG,9610 fluorescence intensity (a.u.)
10,ATTAATTATTATCCAAGCGCAAACATGAAACATCCCTCCCCGGAGTCACCTAGTGCAG,25900 fluorescence intensity (a.u.)
11,CGATGGTCCGGTGACAAATTAATCAACTTGACGTGGAGATCGGAGTCACCTAGTGCAG,3580 fluorescence intensity (a.u.)
12,CCCAAATAGAAGTAGAATTGAGACACTGAGTGGTGCAAAGCGGAGTCACCTAGTGCAG,3400 fluorescence intensity (a.u.)
13,CCAAACTTGCAATTCAATCTTTAAACTAATAATTAGCATGCGGAGTCACCTAGTGCAG,12600 fluorescence intensity (a.u.)
14,CAAACGTCAATTAATATAGAATTGGAGGGAGTATATACCTCGGAGTCACCTAGTGCAG,18200 fluorescence intensity (a.u.)
15,ATATAATTTGAAATGGAAAATTACATGGTTACATGAAACTCGGAGTCACCTAGTGCAG,32800 fluorescence intensity (a.u.)
16,ATTAATGAATGTTAATTTGTTGTTTGCCACAAGTGACTGGCGGAGTCACCTAGTGCAG,32700 fluorescence intensity (a.u.)
17,TCAATTGATTATTACTGCCGCTTACTGTCTCCTCTACTGCCGGAGTCACCTAGTGCAG,53300 fluorescence intensity (a.u.)
18,AAACAGATTATGATGGTAATCTTCTGTCCTCGCTGCGCCTCGGAGTCACCTAGTGCAG,6960 fluorescence intensity (a.u.)
19,AATGATAGGGGACATAGAATAATTTGTCTTATAGTGCTAACGGAGTCACCTAGTGCAG,10200 fluorescence intensity (a.u.)
20,CAGAACGACAACCAATCACTTGGGAAGAGTTTACCGAAGGCGGAGTCACCTAGTGCAG,3980 fluorescence intensity (a.u.)
21,ATTTGACTGGAGTCTAAGAGTACAATCAAATGCCATTATCCGGAGTCACCTAGTGCAG,21900 fluorescence intensity (a.u.)
22,AAGCTTCCTTTGATTGATCCGACTCCACCAAGAACACGATCGGAGTCACCTAGTGCAG,22000 fluorescence intensity (a.u.)
23,TATTATAATTTTCATGAATGGGTATTTCAGTTCCTTTTAGCGGAGTCACCTAGTGCAG,8170 fluorescence intensity (a.u.)
24,GAGAGAAAGAGATTGATTTTGATTATACTAGTTGGTTAGTCGGAGTCACCTAGTGCAG,16300 fluorescence intensity (a.u.)
25,ATCTTAATTAATCATGTACTACTGGTTTTACACATTATGTCGGAGTCACCTAGTGCAG,29000 fluorescence intensity (a.u.)
26,ATACTATGTTAATTTGTCTGTGTCCTAATGACGCACCATACGGAGTCACCTAGTGCAG,5570 fluorescence intensity (a.u.)
27,ATTAGCAAATAATTAATTAATCACGTGCTAATAGACTGCTCGGAGTCACCTAGTGCAG,41400 fluorescence intensity (a.u.)
